Values after ≈ are worked out from the molar mass of the structure shown. Like-named read-outs stand apart in the source and are kept apart here.
How the values were obtained:
[1] = tested on: Klebsiella pneumoniae J 14368/08 ESBL positive
[2] = tested on: Klebsiella pneumoniae D 11750/08

Row | Compound | MIC KP-E ([1]; 24 h) [µM] | MIC KP-E ([1]; 48 h) [µM] | MIC KP ([2]; 24 h) [µM] | MIC KP ([2]; 48 h) [µM]
1 | O=C(Nc1cncc(Cl)n1)c1cccc(Cl)c1 [Compound 3k] | > 125 | > 125 | > 125 | > 125
2 | O=C(Nc1cnc(Cl)cn1)c1ccccc1O [Compound 2b] | 250 (≈ 62.4 µg/mL) | 250 (≈ 62.4 µg/mL) | 250 (≈ 62.4 µg/mL) | 250 (≈ 62.4 µg/mL)
3 | bacitracin [reference compound] | > 500 | > 500 | > 500 | > 500
4 | O=C(Nc1cnccn1)c1ccccc1O [Compound 1b] | > 500 | > 500 | > 500 | > 500
5 | COc1ccc(C(=O)Nc2cnc(Cl)cn2)cc1 [Compound 2g] | > 125 | > 125 | > 125 | > 125
6 | O=C(Nc1cnccn1)c1ccccc1Cl [Compound 1j] | > 500 | > 500 | > 500 | > 500
7 | O=C(c1ccc(Cl)cc1)N(C(=O)c1ccc(Cl)cc1)c1cnccn1 [Compound 1l-SP] | > 125 | > 125 | > 125 | > 125
8 | O=C(Nc1cnc(Cl)cn1)c1ccc(Cl)cc1 [Compound 2l] | > 125 | > 125 | > 125 | > 125
9 | Cc1ccc(C(=O)Nc2cnc(Cl)cn2)cc1 [Compound 2h] | > 125 | > 125 | > 125 | > 125
10 | COc1cccc(C(=O)Nc2cnccn2)c1 [Compound 1f] | > 500 | > 500 | > 500 | > 500
11 | CCc1ccc(C(=O)Nc2cnc(Cl)cn2)cc1 [Compound 2i] | > 125 | > 125 | > 125 | > 125
12 | O=C(Nc1cnccn1)c1cccc(Cl)c1 [Compound 1k] | > 125 | > 125 | > 125 | > 125
13 | CC1(C)S[C@@H]2[C@H](NC(=O)Cc3ccccc3)C(=O)N2[C@H]1C(=O)O [Pen, benzylpenicillin, reference compound] | > 500 | > 500 | 250 (≈ 83.6 µg/mL) | 500 (≈ 167 µg/mL)
14 | CC(=O)Oc1cccc(C(=O)Nc2cnc(Cl)cn2)c1 [Compound 2c-Ac] | > 125 | > 125 | > 125 | > 125
15 | O=C(Nc1cnccn1)c1cccc(C(F)(F)F)c1 [Compound 1n] | > 125 | > 125 | > 125 | > 125
16 | O=C(Nc1cncc(Cl)n1)c1ccccc1Cl [Compound 3j] | > 500 | > 500 | > 500 | > 500
17 | CCc1ccc(C(=O)Nc2cnccn2)cc1 [Compound 1i] | > 500 | > 500 | > 500 | > 500
18 | CC(=O)Oc1ccccc1C(=O)Nc1cnc(Cl)cn1 [Compound 2b-Ac] | > 250 | > 250 | > 250 | > 250
19 | CC(=O)Oc1ccc(C(=O)Nc2cnccn2)cc1 [Compound 1d-Ac] | > 500 | > 500 | > 500 | > 500

Row | Compound | MIC KP-E ([1]; 24 h) [µM] | MIC KP-E ([1]; 48 h) [µM] | MIC KP ([2]; 24 h) [µM] | MIC KP ([2]; 48 h) [µM]
20 | COc1ccccc1C(=O)Nc1cnccn1 [Compound 1e] | > 500 | > 500 | > 500 | > 500
21 | CC1(C)S[C@@H]2[C@H](NC(=O)COc3ccccc3)C(=O)N2[C@H]1C(=O)O [Phen, phenoxymethylpenicillin, reference compound] | > 500 | > 500 | > 500 | > 500
22 | O=C(Nc1cnc(Cl)cn1)c1cccc(O)c1 [Compound 2c] | > 500 | > 500 | > 500 | > 500
23 | O=C(Nc1cnccn1)c1ccc(Cl)cc1 [Compound 1l] | > 125 | > 125 | > 125 | > 125
24 | O=C(Nc1cnccn1)c1cccc(O)c1 [Compound 1c] | > 500 | > 500 | > 500 | > 500
25 | CC(=O)Oc1cccc(C(=O)Nc2cnccn2)c1 [Compound 1c-Ac] | > 500 | > 500 | > 500 | > 500
26 | CC(=O)Oc1ccc(C(=O)Nc2cnc(Cl)cn2)cc1 [Compound 2d-Ac] | > 125 | > 125 | > 125 | > 125
27 | Cc1ccc(C(=O)Nc2cnccn2)cc1 [Compound 1h] | > 500 | > 500 | > 500 | > 500
28 | O=C(Nc1cnccn1)c1ccccc1 [Compound 1a] | > 500 | > 500 | > 500 | > 500
29 | COc1ccccc1C(=O)Nc1cncc(Cl)n1 [Compound 3e] | > 500 | > 500 | > 500 | > 500
30 | COc1cccc(C(=O)Nc2cnc(Cl)cn2)c1 [Compound 2f] | > 500 | > 500 | > 500 | > 500
31 | COc1ccc(C(=O)Nc2cnccn2)cc1 [Compound 1g] | > 500 | > 500 | > 500 | > 500
32 | COc1ccccc1C(=O)Nc1cnc(Cl)cn1 [Compound 2e] | > 125 | > 125 | > 125 | > 125
33 | O=C(Nc1cnc(Cl)cn1)c1ccc(Br)cc1 [Compound 2m] | > 125 | > 125 | > 125 | > 125
34 | O=C(Nc1cnc(Cl)cn1)c1ccccc1 [Compound 2a] | > 500 | > 500 | > 500 | > 500
35 | O=C(Nc1cnc(Cl)cn1)c1ccccc1Cl [Compound 2j] | > 500 | > 500 | > 500 | > 500
36 | O=C(Nc1cnc(Cl)cn1)c1ccc(O)cc1 [Compound 2d] | > 500 | > 500 | > 500 | > 500
37 | O=C(Nc1cnc(Cl)cn1)c1cccc(Cl)c1 [Compound 2k] | > 125 | > 125 | > 125 | > 125
